The list shows a part of the results. One pool of 16,384 single-stranded DNAs met each Rep nickase domain in vitro for 1 h at 37 °C with 3 µM enzyme; only the middle of the 90-letter strands is printed. Uncut reads are compared with the no-enzyme pool on a log2 scale; strong cutting gives strongly negative numbers. There is no active / inactive call. Counts are relative to all reads, so uncut sequences can rise above 0 when many others are cut.
Assays:
Test in all cases: uncleaved DNA left, log2 of reads against the no-enzyme library (log2 ratio); higher = less cleavage (more negative = more Rep cleavage of the k-mer); sequences stand for … in CTCGTCCG…ACCGGAGA
[1] = test system: T1, Rep nickase domain of Muscovy duck circovirus
T1 sequence (residues 1-111, tag not shown): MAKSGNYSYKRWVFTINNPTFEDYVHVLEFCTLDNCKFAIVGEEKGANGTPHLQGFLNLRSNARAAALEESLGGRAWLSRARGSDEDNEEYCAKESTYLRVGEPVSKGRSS
Protocol: (§1)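 A pool of 90-nt single-stranded DNAs with seven random bases just before the constant AC of the nick site (name = the seven bases) was cut by 3 µM recombinant His6-SUMO-tagged Rep nickase domain (300 nM DNA, 50 mM HEPES pH 8.0, 50 mM NaCl, 1 mM MnCl2, 1 h, 37 °C, three replicates). Uncut DNA was amplified and sequenced.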

[2] = test system: T2, Rep nickase domain of banana bunchy top virus
T2 sequence (residues 1-94, tag not shown): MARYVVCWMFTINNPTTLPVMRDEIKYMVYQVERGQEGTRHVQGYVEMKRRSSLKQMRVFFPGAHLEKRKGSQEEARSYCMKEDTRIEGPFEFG
Protocol: as §1

[3] = test system: T3, Rep nickase domain of cabbage leaf curl virus
T3 sequence (residues 1-116, tag not shown): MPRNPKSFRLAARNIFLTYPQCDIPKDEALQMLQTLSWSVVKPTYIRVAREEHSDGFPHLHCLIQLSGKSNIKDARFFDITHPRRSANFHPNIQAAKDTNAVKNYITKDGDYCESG
Protocol: as §1

[4] = test system: T4, Rep nickase domain of chickpea chlorotic dwarf virus
T4 sequence (residues 1-124, tag not shown): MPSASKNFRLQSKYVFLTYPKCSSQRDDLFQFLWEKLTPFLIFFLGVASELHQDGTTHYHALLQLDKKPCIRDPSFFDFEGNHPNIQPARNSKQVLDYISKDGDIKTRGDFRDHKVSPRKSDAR
Protocol: as §1

[5] = test system: T5, Rep nickase domain of faba bean necrotic yellows virus
T5 sequence (residues 1-98, tag not shown): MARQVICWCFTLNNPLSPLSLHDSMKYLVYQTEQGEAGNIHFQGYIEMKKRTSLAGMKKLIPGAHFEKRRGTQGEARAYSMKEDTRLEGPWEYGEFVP
Protocol: as §1

[6] = test system: T6, Rep nickase domain of maize striate mosaic virus
T6 sequence (residues 1-117, tag not shown): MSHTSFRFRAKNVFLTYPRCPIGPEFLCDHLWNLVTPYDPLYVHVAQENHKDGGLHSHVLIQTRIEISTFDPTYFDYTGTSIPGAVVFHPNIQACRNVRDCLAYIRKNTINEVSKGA
Protocol: as §1

[7] = test system: T7, Rep nickase domain of porcine circovirus 2
T7 sequence (residues 2-116, tag not shown): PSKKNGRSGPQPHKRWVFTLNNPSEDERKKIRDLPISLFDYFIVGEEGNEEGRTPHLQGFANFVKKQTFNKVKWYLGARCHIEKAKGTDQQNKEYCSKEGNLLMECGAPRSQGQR
Protocol: as §1

[8] = test system: T8, Rep nickase domain of tomato golden mosaic virus
T8 sequence (residues 1-124, tag not shown): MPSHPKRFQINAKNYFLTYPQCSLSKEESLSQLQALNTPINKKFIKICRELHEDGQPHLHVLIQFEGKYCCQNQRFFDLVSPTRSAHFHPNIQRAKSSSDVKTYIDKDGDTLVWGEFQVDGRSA
Protocol: as §1

[9] = test system: T9, Rep nickase domain of tomato yellow leaf curl virus
T9 sequence (residues 1-136, tag not shown): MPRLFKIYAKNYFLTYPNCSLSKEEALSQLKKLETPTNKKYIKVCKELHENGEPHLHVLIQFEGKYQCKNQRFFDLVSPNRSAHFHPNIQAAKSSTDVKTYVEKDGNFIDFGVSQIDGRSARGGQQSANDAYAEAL
Protocol: as §1

[10] = test system: T10, Rep nickase domain of wheat dwarf virus
T10 sequence (residues 1-137, tag not shown): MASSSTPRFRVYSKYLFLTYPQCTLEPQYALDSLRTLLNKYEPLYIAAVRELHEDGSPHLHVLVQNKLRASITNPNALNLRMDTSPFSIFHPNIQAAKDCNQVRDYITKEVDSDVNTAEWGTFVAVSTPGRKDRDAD
Protocol: as §1

Row | Sequence | uncleaved DNA left (log2) [1] | uncleaved DNA left (log2) [2] | uncleaved DNA left (log2) [3] | uncleaved DNA left (log2) [4] | uncleaved DNA left (log2) [5] | uncleaved DNA left (log2) [6] | uncleaved DNA left (log2) [7] | uncleaved DNA left (log2) [8] | uncleaved DNA left (log2) [9] | uncleaved DNA left (log2) [10]
1 | ACTCGGG | -0.0353 | 0.0585 | -0.49 | -0.21 | 0.138 | -1.05 | 0.214 | 0.046 | 0.194 | -0.0465
2 | ACGAGTT | 0.108 | -0.0897 | -0.256 | -1.72 | 0.047 | -0.231 | 0.0187 | 0.185 | -0.047 | -0.00356
3 | AACACGC | -0.00835 | -0.0601 | -0.449 | -0.668 | 0.0209 | -1.06 | 0.0135 | 0.0125 | -0.13 | -0.0724
4 | GGGGTTC | 0.188 | 0.0529 | 0.785 | 1.71 | -0.0752 | 2.24 | 0.198 | 0.0341 | 0.0558 | 0.274
5 | GCCCACA | -0.0675 | -0.0516 | 0.0467 | -0.276 | -0.205 | 0.133 | -0.0506 | -0.00354 | -0.0698 | -0.0694
6 | TTATAGT | -3.5 | -0.0263 | -3.12 | -3.13 | 0.00267 | -1.66 | -3.39 | -1.48 | 0.0412 | -1.62
7 | GGTCCAA | -0.077 | 0.0225 | 0.411 | 1.2 | -0.115 | 1.78 | 0.0498 | -0.0623 | -0.0114 | 0.0484
8 | GGGCTAT | -0.163 | 0.151 | 0.805 | 1.96 | -0.0295 | 2.2 | 0.15 | 0.0287 | 0.0749 | 0.047
9 | CTTCGCG | 0.048 | 0.0727 | -0.786 | -0.131 | 0.137 | -0.91 | 0.0854 | -0.0268 | 0.13 | 0.000345
10 | TTGTGCG | -0.0363 | -0.0379 | -0.396 | 0.984 | -0.0231 | 0.353 | -0.0461 | -0.142 | -0.373 | -0.112
11 | GCCAAGC | -0.0302 | -0.148 | 0.175 | 0.738 | -0.087 | 0.285 | 0.0303 | -0.0472 | -0.154 | -0.0173
12 | GGGCCTC | 0.0889 | 0.0848 | 0.764 | 1.79 | 0.0266 | 2.15 | 0.205 | 0.0328 | -0.0152 | 0.23
13 | AGACTGT | -0.0396 | -0.0157 | -0.00955 | 0.688 | -0.00862 | 1.59 | -0.0341 | -0.089 | -0.106 | 0.022
14 | AAAGGAA | 0.00855 | 0.00518 | 0.18 | 1.5 | 0.0703 | 1.6 | 0.24 | 0.0466 | -0.176 | 0.134
15 | GTCTCAC | 0.07 | 0.17 | 0.397 | 0.873 | 0.128 | 1.74 | 0.214 | 0.182 | 0.192 | 0.205
16 | ATATAGT | -3.41 | -0.242 | -1.54 | -2.33 | -0.0184 | -1.49 | -3.72 | -0.214 | -0.0662 | -0.248
17 | ACACCAC | 0.157 | 0.152 | 0.0304 | -0.362 | 0.188 | -0.372 | 0.194 | 0.0838 | -0.0704 | 0.0991
18 | AATCAGC | -0.00423 | 0.0157 | -0.43 | -0.591 | -0.0226 | -1.07 | 0.0822 | -0.00597 | -0.0614 | -0.0508
19 | TAAAAGC | -0.0243 | -0.0726 | -0.396 | -1.26 | 0.0404 | -1.24 | 0.109 | 0.0285 | 0.00931 | -0.159
20 | ATCTACG | -0.124 | -0.111 | -0.892 | -0.487 | -0.0181 | -1.1 | 0.141 | -0.109 | -0.0882 | -0.19
21 | TTCACTA | -0.066 | -0.0652 | 0.126 | -1.01 | 0.0416 | 0.233 | -0.144 | -0.0254 | -0.0286 | 0.044
22 | TTCTGAC | 0.0992 | -0.044 | -0.0113 | 0.143 | 0.0925 | -0.0697 | 0.0523 | -0.178 | 0.0395 | 0.0584
23 | TTCGTCA | 0.0294 | -0.000114 | 0.0984 | -0.768 | -0.092 | -0.361 | -0.0264 | -0.0184 | -0.0385 | 0.0167
24 | ATACAGT | 0.0759 | -0.0305 | -0.507 | -1.55 | -0.0117 | -0.897 | 0.0391 | 0.0254 | -0.0379 | -0.0302
25 | TCTGGGC | -0.177 | 0.0204 | 0.145 | -0.00406 | -0.0882 | -0.436 | 0.0476 | -0.0919 | -0.0176 | -0.0793
26 | CACCTAC | -0.296 | -0.251 | -0.488 | -2.65 | -0.0941 | -0.988 | -0.403 | -0.226 | -0.318 | -0.303
27 | AATATCA | 0.0309 | 0.162 | 0.373 | -0.575 | -0.0289 | 0.213 | 0.00721 | 0.0535 | 0.226 | 0.182
28 | CGCTGAA | -0.0118 | -0.199 | 0.0484 | 0.378 | -0.12 | 0.731 | -0.121 | -0.118 | -0.0441 | -0.00815
29 | GGAGCAA | 0.0661 | 0.116 | 0.846 | 1.88 | 0.0325 | 2.17 | 0.25 | 0.0392 | 0.115 | 0.238
30 | ACCAATT | 0.116 | -0.0572 | -0.383 | -2.15 | 0.089 | -0.616 | -0.133 | 0.175 | -0.0822 | 0.0771

Source: the supplement of paper PMC7826260
